The chains are these.
B1: TMEM130_Y412 (peptide)
chain: ETPSEYLEIVR
B2: TKT_Y321_R318C (peptide)
chain: ATCKAYGQALA
B3: TJP1_Y1602 (peptide)
chain: AEKPKYQINNI
B4: TMED3_Y85_D86N_YF (peptide)
chain: ETKKQYNSFTF
B5: TKT_Y321 (peptide)
chain: ATRKAYGQALA
B6: TKTL1_Y318_D315N (peptide)
chain: DGNTRYSTFSE
B7: TJP1_Y1602_N1605S (peptide)
chain: AEKPKYQISNI
B8: THG1L_Y228_L232P (peptide)
chain: EFNINYNNEPP
B9: TIMP3_Y182_YF (peptide)
chain: FQSKHYACIRQ
B10: TMED1_Y103_D102N (peptide)
chain: TEAGNYKLCFD
B11: TMEM240_Y77 (peptide)
chain: DASENYFVTDS
B12: TK2_Y190_R192K (peptide)
chain: NPETCYQKLKK
B13: TJP1_Y1346_D1347A (peptide)
chain: VRSNHYAPEED
B14: TKT_Y563_YF (peptide)
chain: TVEDHYFEGGI
B15: TMEM159_Y159_E154D (peptide)
chain: DFEGLYQEGGG
B16: TMEM87B_Y460 (peptide)
chain: ANNQRYAFMPL
B17: THAP1_Y14_K16E (peptide)
chain: GCKNRYDEDKP
B18: THG1L_Y228 (peptide)
chain: EFNINYNNELP

The list shows a part of the results. Cut-off read from the data, not from the text of the source: active = 3.2 or more and inactive = the rest. Most of these values are background signal.
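Note: displayed peptides selected on beads carrying the immobilized SH2 domain, with library peptides lacking any tyrosine serving as negative controls.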

One assay addresses SHP2 C-SH2 domain E139D. The experiment in a line: enrichment score (SH2-bound / input frequency) (ratio); bacterial display of known human phosphotyrosine sites (pTyr-Var adds point mutants) read by sequencing; higher = stronger binding; tyrosines were phosphorylated by kinases first. To be noted: peptide library: pTyr-Var.
For the molecule B1, the enrichment score is inactive: 0.974.
Same read-out and setting: for B2 the value was inactive: 0.566.
Still for that read-out and setting: for B3 the value was inactive: 0.924.
Still for that read-out and setting: the same measure for B4: inactive: 0.589.
As for B5, the enrichment score was inactive: 0.66.
As for B6, the enrichment score is inactive: 0.588.
On the same count and under the same terms, the same measure for B7: inactive: 0.993; for B8: inactive: 0.826; for B9: inactive: 1.66.
Same read-out and setting: the same measure for B10: inactive: 0.618.
Take B11: the enrichment score was inactive: 0.716.
On the same count and under the same terms, for B12 the value was inactive: 1.05; for B13, inactive: 0.549.
Still for that read-out and setting: the same measure for B14: inactive: 0.864; for B15: inactive: 0.719.
On the same count and under the same terms, the same measure for B16: inactive: 0.92; for B17: inactive: 0.379.
In the case of B18, the enrichment score was inactive: 0.875.

For a further assay, the target named is SHP2 C-SH2 domain wild-type. The assay is described as above. To be noted: peptide library: pTyr-Var.
Turning to B1, the enrichment score is inactive: 0.816.
Turning to B2, the enrichment score was inactive: 0.545.
Still for that read-out and setting: for B3 the value was inactive: 0.812; for B4, inactive: 0.688.
The same measure, in the same setting: for B5 the value was inactive: 0.512.
The same measure, in the same setting: for B6 the value was inactive: 0.702; for B7, inactive: 0.91; for B8, inactive: 0.848.
Take B9: the enrichment score is inactive: 2.42.
Same read-out and setting: for B10 the value was inactive: 0.583; for B11, inactive: 0.524; for B12, inactive: 1.41.
Same read-out and setting: the same measure for B13: inactive: 0.617; for B14: inactive: 0.84.
Still for that read-out and setting: the same measure for B15: inactive: 0.678; for B16: inactive: 0.803.
On to B17, for which the enrichment score is inactive: 0.502.
Still for that read-out and setting: for B18 the value was inactive: 0.69.

Another assay addresses SHP2 N-SH2 domain L43F. The assay is described as above. To be noted: peptide library: pTyr-Var.
Take B1: the enrichment score is inactive: 1.05.
In the case of B2, the enrichment score was inactive: 0.608.
Same read-out and setting: the same measure for B3: inactive: 0.916; for B4: inactive: 0.652.
On the same count and under the same terms, the same measure for B5: inactive: 0.484.
Still for that read-out and setting: the same measure for B6: inactive: 0.686; for B7: inactive: 0.787.
Turning to B8, the enrichment score is inactive: 0.655.
The same measure, in the same setting: for B9 the value was inactive: 1.39; for B10, inactive: 0.526; for B11, inactive: 0.605.
Same read-out and setting: the same measure for B12: inactive: 1.18.
Still for that read-out and setting: for B13 the value was inactive: 0.647; for B14, inactive: 0.933; for B15, inactive: 0.775.
For the molecule B16, the enrichment score is inactive: 0.733.
Still for that read-out and setting: the same measure for B17: inactive: 0.492; for B18: inactive: 0.699.

The target in another assay is SHP2 N-SH2 domain T42A. Described as above. To be noted: peptide library: pTyr-Var.
With B1, the enrichment score was inactive: 0.734.
For the molecule B2, the enrichment score is inactive: 0.546.
Still for that read-out and setting: for B3 the value was inactive: 0.895; for B4, inactive: 0.827; for B5, inactive: 0.526.
The same measure, in the same setting: for B6 the value was inactive: 0.599.
On the same count and under the same terms, for B7 the value was inactive: 0.799; for B8, inactive: 0.709.
On to B9, for which the enrichment score is inactive: 1.47.
The same measure, in the same setting: for B10 the value was inactive: 0.521; for B11, inactive: 0.442.
Still for that read-out and setting: the same measure for B12: inactive: 0.817.
The same measure, in the same setting: for B13 the value was inactive: 0.481.
Turning to B14, the enrichment score is inactive: 0.758.
Still for that read-out and setting: the same measure for B15: inactive: 0.722; for B16: inactive: 0.674; for B17: inactive: 0.428.
Consider B18, for which the enrichment score was inactive: 0.786.

In another assay the target is SHP2 N-SH2 domain T52S. Described as above. To be noted: peptide library: pTyr-Var.
Consider B1, for which the enrichment score is inactive: 0.943.
Regarding B2, the enrichment score was inactive: 0.586.
With B3, the enrichment score is inactive: 0.762.
As for B4, the enrichment score was inactive: 0.66.
Still for that read-out and setting: for B5 the value was inactive: 0.41; for B6, inactive: 0.708.
Still for that read-out and setting: the same measure for B7: inactive: 0.658; for B8: inactive: 0.735; for B9: inactive: 1.32.
On the same count and under the same terms, the same measure for B10: inactive: 0.533; for B11: inactive: 0.511; for B12: inactive: 0.899.
On to B13, for which the enrichment score is inactive: 0.556.
On the same count and under the same terms, for B14 the value was inactive: 0.707; for B15, inactive: 0.571; for B16, inactive: 0.764.
Still for that read-out and setting: for B17 the value was inactive: 0.497.
Still for that read-out and setting: the same measure for B18: inactive: 0.953.

The target in the next assay is SHP2 N-SH2 domain wild-type. Described as above. To be noted: peptide library: pTyr-Var.
For the molecule B1, the enrichment score was inactive: 0.948.
The same measure, in the same setting: for B2 the value was inactive: 0.782.
The same measure, in the same setting: for B3 the value was inactive: 0.718; for B4, inactive: 0.787.
In the case of B5, the enrichment score was inactive: 0.486.
For B6, the enrichment score is inactive: 0.752.
The same measure, in the same setting: the same measure for B7: inactive: 0.787.
Still for that read-out and setting: for B8 the value was inactive: 0.755; for B9, inactive: 1.75.
Still for that read-out and setting: for B10 the value was inactive: 0.639; for B11, inactive: 0.653.
Turning to B12, the enrichment score was inactive: 1.49.
For the molecule B13, the enrichment score is inactive: 0.856.
Regarding B14, the enrichment score was inactive: 0.745.
On the same count and under the same terms, for B15 the value was inactive: 0.634.
The same measure, in the same setting: the same measure for B16: inactive: 0.885.
For the molecule B17, the enrichment score was inactive: 0.525.
The same measure, in the same setting: the same measure for B18: inactive: 0.728.

For the origin of these results see the supplement of paper PMC10369915.
